{"source": "the supplement of paper PMC3334620", "note": "Whole data set: some 33,000 sequences, median “E-score (-0.5 to 0.5)” near -0.021, cut for the highest 2% near 0.32. Some of the results follow."}
{"molecular_target": "T1, Zap1 (UniProt P47043)", "T1 sequence": "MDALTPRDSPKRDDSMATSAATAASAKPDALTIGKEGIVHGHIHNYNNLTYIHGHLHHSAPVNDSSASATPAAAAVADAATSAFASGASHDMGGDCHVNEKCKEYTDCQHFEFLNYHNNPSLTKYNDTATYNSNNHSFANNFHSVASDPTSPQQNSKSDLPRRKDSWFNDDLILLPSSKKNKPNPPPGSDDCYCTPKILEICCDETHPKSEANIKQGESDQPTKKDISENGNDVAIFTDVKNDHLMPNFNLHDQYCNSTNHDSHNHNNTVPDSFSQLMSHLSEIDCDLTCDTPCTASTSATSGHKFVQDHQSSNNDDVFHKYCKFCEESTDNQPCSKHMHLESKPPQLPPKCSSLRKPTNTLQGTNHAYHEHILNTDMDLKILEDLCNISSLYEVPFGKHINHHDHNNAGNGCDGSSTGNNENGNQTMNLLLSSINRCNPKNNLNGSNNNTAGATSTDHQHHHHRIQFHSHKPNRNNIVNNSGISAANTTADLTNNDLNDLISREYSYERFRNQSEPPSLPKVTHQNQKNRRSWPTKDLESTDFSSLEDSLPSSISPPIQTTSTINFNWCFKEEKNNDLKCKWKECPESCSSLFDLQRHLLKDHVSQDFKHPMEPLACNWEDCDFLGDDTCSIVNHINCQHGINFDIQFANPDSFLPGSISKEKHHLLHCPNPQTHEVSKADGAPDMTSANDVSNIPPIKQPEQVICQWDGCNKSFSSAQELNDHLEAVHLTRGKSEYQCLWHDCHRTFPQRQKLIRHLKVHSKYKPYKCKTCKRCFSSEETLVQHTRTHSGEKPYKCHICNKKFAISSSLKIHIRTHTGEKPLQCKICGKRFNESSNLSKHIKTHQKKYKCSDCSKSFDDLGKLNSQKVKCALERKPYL", "assay": "PBM E-score (8-mer binding enrichment) (E-score (-0.5 to 0.5)); higher = stronger / more preferred TF binding; most listed sequences are background and not binding sites", "conditions": "protein concentration: 200 nM; construct: GST-full length", "how_it_was_run": "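E-scores (a modified Wilcoxon-Mann-Whitney statistic) were assigned by the Universal PBM Analysis Suite to every ungapped eight-base word pooled with its reverse complement. The input came from universal all-10-mer Agilent arrays made double-stranded by primer extension and probed with GST-tagged yeast transcription factors at about 100-200 nM. Fluorescent anti-GST detected bound protein, and masliner normalised the scans.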"}
{"sequence": "TGACGCCA", "PBM E-score": -0.0485}
{"sequence": "CGCCTATA", "PBM E-score": -0.149}
{"sequence": "GAGCCGAC", "PBM E-score": -0.16}
{"sequence": "CATATGGA", "PBM E-score": -0.057}
{"sequence": "CCTACACC", "PBM E-score": 0.00539}
{"sequence": "GCCTTAGA", "PBM E-score": -0.0849}
{"sequence": "CTGAGAAG", "PBM E-score": -0.17}
{"sequence": "ATTGCCCA", "PBM E-score": -0.118}
{"sequence": "GACGGAGA", "PBM E-score": -0.259}
{"sequence": "ACTAACCC", "PBM E-score": 0.271}
{"sequence": "TCGTGTAA", "PBM E-score": 0.037}
{"sequence": "AGTCATCG", "PBM E-score": -0.0847}
{"sequence": "CGCGAAAG", "PBM E-score": 0.0879}
{"sequence": "CGGGTCAG", "PBM E-score": 0.28}
{"sequence": "GATGAGAC", "PBM E-score": 0.0403}
{"sequence": "CTTACTAA", "PBM E-score": 0.0846}
{"sequence": "GCTCACCC", "PBM E-score": -0.0292}
{"sequence": "CTGCCTTC", "PBM E-score": -0.275}
{"sequence": "AACATCAT", "PBM E-score": -0.0224}
{"sequence": "AAGGCCAA", "PBM E-score": -0.0469}
{"sequence": "AAGCCCAT", "PBM E-score": -0.17}
{"sequence": "CCTATTGA", "PBM E-score": 0.158}
{"sequence": "AGACCTAT", "PBM E-score": 0.159}
{"sequence": "GGCGGAAC", "PBM E-score": -0.0843}
{"sequence": "AGGCGTCC", "PBM E-score": -0.2}
{"sequence": "CCATGGCC", "PBM E-score": 0.2}
{"sequence": "CATCCAGC", "PBM E-score": -0.108}
{"sequence": "GAGCTAGA", "PBM E-score": -0.232}
{"sequence": "AACAAAAG", "PBM E-score": 0.195}
{"sequence": "CCCTGAAC", "PBM E-score": 0.21}
{"sequence": "GACTCTTA", "PBM E-score": 0.128}
{"sequence": "CTCTGAGA", "PBM E-score": -0.111}
{"sequence": "AGTGAATG", "PBM E-score": -0.00523}
{"sequence": "ATGTCTTG", "PBM E-score": -0.00745}
{"sequence": "AAGCGAAG", "PBM E-score": 0.0371}
{"sequence": "ACAATCAT", "PBM E-score": -0.0482}
{"sequence": "GCGCAAGA", "PBM E-score": -0.0496}
{"sequence": "TACGATCA", "PBM E-score": 0.127}
{"sequence": "CGTGTATA", "PBM E-score": -0.145}
{"sequence": "ATAGCGCA", "PBM E-score": -0.152}
{"sequence": "GAGTGGGA", "PBM E-score": -0.244}
{"sequence": "CCCATTAA", "PBM E-score": -0.0317}
{"sequence": "CCACGCGG", "PBM E-score": 0.021}
{"sequence": "AATCATCA", "PBM E-score": 0.0469}
{"sequence": "ACAGCAGG", "PBM E-score": 0.0624}
{"sequence": "CATGGAAA", "PBM E-score": 0.114}
{"sequence": "ATGACGGA", "PBM E-score": 0.11}
{"sequence": "GAAGCATA", "PBM E-score": -0.0632}
{"sequence": "GCTATTTA", "PBM E-score": -0.0443}
{"sequence": "ACGCACTG", "PBM E-score": -0.122}
{"sequence": "AAAAGACA", "PBM E-score": 0.163}
{"sequence": "ACTCTGCC", "PBM E-score": -0.148}
{"sequence": "CTGTTTAC", "PBM E-score": 0.0354}
{"sequence": "CTCCTAAC", "PBM E-score": 0.0998}
{"sequence": "ACCGAGAA", "PBM E-score": 0.176}
{"sequence": "AATTCATA", "PBM E-score": 0.215}
{"sequence": "CCAGTTAA", "PBM E-score": 0.197}
{"sequence": "GTTATCCA", "PBM E-score": 0.231}
{"sequence": "CCATAGAC", "PBM E-score": -0.00887}
{"sequence": "GACCGTCC", "PBM E-score": -0.0473}
{"sequence": "AACACGTA", "PBM E-score": -0.0708}
{"sequence": "AACGTAGG", "PBM E-score": -0.222}
{"sequence": "GAGTAGAC", "PBM E-score": -0.0776}
{"sequence": "CCAAACAG", "PBM E-score": 0.0992}
{"sequence": "CAAAGCTC", "PBM E-score": -0.00389}
{"sequence": "GCCAGGAA", "PBM E-score": -0.0959}
{"sequence": "AGTGACAT", "PBM E-score": -0.0823}
{"sequence": "GAGCGCTA", "PBM E-score": -0.137}
{"sequence": "AGATTCCT", "PBM E-score": -0.185}
{"sequence": "GCCTATAC", "PBM E-score": -0.326}
{"sequence": "CAAGTAAG", "PBM E-score": 0.129}
{"sequence": "GCATCTGA", "PBM E-score": -0.171}
{"sequence": "AAACGATT", "PBM E-score": -0.0766}
{"sequence": "CAGCGAGG", "PBM E-score": 0.0288}
{"sequence": "CCATTTGC", "PBM E-score": -0.0641}
{"sequence": "ACGAACCA", "PBM E-score": 0.219}
{"sequence": "GGTCACGA", "PBM E-score": 0.391}
{"sequence": "CGGCAGAA", "PBM E-score": -0.233}
{"sequence": "TGGAACCA", "PBM E-score": 0.199}
{"sequence": "ATAACCGA", "PBM E-score": 0.349}
{"sequence": "CAAGGTGA", "PBM E-score": 0.216}
{"sequence": "ATATGTCA", "PBM E-score": -0.0856}
{"sequence": "GCAGTGCC", "PBM E-score": -0.123}
{"sequence": "TCACAAGA", "PBM E-score": 0.0766}
{"sequence": "ATGCGTAC", "PBM E-score": -0.157}
{"sequence": "GTTTGCGA", "PBM E-score": -0.0367}
